Source: a compilation of properties of binary mixtures (doi:10.1021/je00044a019)
The densities may have been worked out from excess volumes.

Assay: xn = mol fraction of the nth substance listed
Settings: 101.3 kPa

[Cl][Cu] + CC[n+]1ccn(C)c1.[Cl-]
mass density [kg/m3]
Settings	298.15 K	303.15 K	308.15 K	313.15 K	318.15 K	323.15 K
x1 = 0.332	1364.5	1360.7	1356.9	1353.1	1349.3	–
x1 = 0.4	–	1380.5	1376.3	1372	1367.8	1363.6
x1 = 0.498	1515.3	1509.9	1504.5	–	1493.7	1488.3
x1 = 0.604	1689.5	1684.1	–	1673.4	1668.1	1662.7
x1 = 0.666	1873.1	1866.9	–	1854.5	1848.3	1842.1
